Test results reported in the supplement of paper PMC8728848.
The other results are listed elsewhere or left out.

Experiments:
Assay in all cases: glycan array binding signal (z-score within array); higher = stronger binding
Conditions in all cases: glycan notation: IUPAC condensed, linker removed
[1] = target: Glc(b1-4)Glc(b1-3)Glc
Procedure, shortened: (§1)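 Glycan array binding is given as a within-array Z-score, which can be read as non-binding when negative. The arrays, 3228 of them, came from the Consortium for Functional Glycomics database and were retained only where the protein sequence was available. Z-scores were averaged across arrays of the same protein sequence at different concentrations or buffers and across linkers.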

[2] = target: Glc(b1-4)Glc(b1-3)Glc(b1-4)Glc
Procedure, shortened: as §1

[3] = target: Glc(b1-4)Glc(b1-4)Glc
Procedure, shortened: as §1

[4] = target: Glc(b1-4)Glc(b1-4)Glc(b1-3)Glc
Procedure, shortened: as §1

[5] = target: Glc(b1-4)Glc(b1-4)Glc(b1-3)Glc(b1-4)Glc(b1-4)Glc(b1-3)Glc
Procedure, shortened: as §1

[6] = target: Glc(b1-4)Glc(b1-4)Glc(b1-4)Glc
Procedure, shortened: as §1

[7] = target: Glc(b1-4)Glc(b1-4)Glc(b1-4)Glc(b1-3)Glc
Procedure, shortened: as §1

[8] = target: Glc(b1-4)Glc(b1-4)Glc(b1-4)Glc(b1-4)Glc
Procedure, shortened: as §1

[9] = target: Glc(b1-4)Glc(b1-4)Glc(b1-4)Glc(b1-4)Glc(b1-4)Glc
Procedure, shortened: as §1

[10] = target: Glc(b1-4)Glc(b1-4)Glc(b1-4)Glc(b1-4)Glc(b1-4)Glc(b1-4)Glc
Procedure, shortened: as §1

[11] = target: Glc(b1-4)Glc(b1-4)Glc(b1-4)Glc(b1-4)Glc(b1-4)Glc(b1-4)Glc(b1-4)Glc
Procedure, shortened: as §1

[12] = target: Glc(b1-4)Glc(b1-4)Glc(b1-4)Glc(b1-4)Glc(b1-4)Glc(b1-4)Glc(b1-4)Glc(b1-4)Glc
Procedure, shortened: as §1

[13] = target: Glc(b1-4)Glc(b1-4)Glc(b1-4)Glc(b1-4)Glc(b1-4)Glc(b1-4)Glc(b1-4)Glc(b1-4)Glc(b1-4)Glc
Procedure, shortened: as §1

[14] = target: Glc(b1-4)Glc(b1-4)Glc(b1-4)Glc(b1-4)Glc(b1-4)Glc(b1-4)Glc(b1-4)Glc(b1-4)Glc(b1-4)Glc(b1-4)Glc
Procedure, shortened: as §1

[15] = target: Glc(b1-4)Glc(b1-4)Glc(b1-4)Glc(b1-4)Glc(b1-4)Glc(b1-4)Glc(b1-4)Glc(b1-4)Glc(b1-4)Glc(b1-4)Glc(b1-4)Glc
Procedure, shortened: as §1

[16] = target: Glc(b1-4)Glc(b1-4)Glc(b1-4)Glc(b1-4)Glc(b1-4)Glc(b1-4)Glc(b1-4)Glc(b1-4)Glc(b1-4)Glc(b1-4)Glc(b1-4)Glc(b1-4)Glc
Procedure, shortened: as §1

[17] = target: Glc(b1-6)Glc
Procedure, shortened: as §1

[18] = target: Glc(b1-6)Glc(b1-6)Glc
Procedure, shortened: as §1

[19] = target: Glc(b1-6)Glc(b1-6)Glc(b1-6)Glc
Procedure, shortened: as §1

[20] = target: Glc(b1-6)Glc(b1-6)Glc(b1-6)Glc(b1-6)Glc
Procedure, shortened: as §1

[21] = target: Glc(b1-6)Glc(b1-6)Glc(b1-6)Glc(b1-6)Glc(b1-6)Glc
Procedure, shortened: as §1

[22] = target: Glc(b1-6)Glc(b1-6)Glc(b1-6)Glc(b1-6)Glc(b1-6)Glc(b1-6)Glc
Procedure, shortened: as §1

[23] = target: Glc(b1-6)Glc(b1-6)Glc(b1-6)Glc(b1-6)Glc(b1-6)Glc(b1-6)Glc(b1-6)Glc
Procedure, shortened: as §1

[24] = target: Glc(b1-6)Glc(b1-6)Glc(b1-6)Glc(b1-6)Glc(b1-6)Glc(b1-6)Glc(b1-6)Glc(b1-6)Glc
Procedure, shortened: as §1

[25] = target: Glc(b1-6)Glc(b1-6)Glc(b1-6)Glc(b1-6)Glc(b1-6)Glc(b1-6)Glc(b1-6)Glc(b1-6)Glc(b1-6)Glc
Procedure, shortened: as §1

[26] = target: Glc(b1-6)Glc(b1-6)Glc(b1-6)Glc(b1-6)Glc(b1-6)Glc(b1-6)Glc(b1-6)Glc(b1-6)Glc(b1-6)Glc(b1-6)Glc
Procedure, shortened: as §1

[27] = target: Glc(b1-6)Glc(b1-6)Glc(b1-6)Glc(b1-6)Glc(b1-6)Glc(b1-6)Glc(b1-6)Glc(b1-6)Glc(b1-6)Glc(b1-6)Glc(b1-6)Glc
Procedure, shortened: as §1

[28] = target: Glc(b1-6)Glc(b1-6)Glc(b1-6)Glc(b1-6)Glc(b1-6)Glc(b1-6)Glc(b1-6)Glc(b1-6)Glc(b1-6)Glc(b1-6)Glc(b1-6)Glc(b1-6)Glc
Procedure, shortened: as §1

[29] = target: GlcA(b1-3)Gal
Procedure, shortened: as §1

[30] = target: GlcA(b1-3)Gal(b1-3)GlcNAc
Procedure, shortened: as §1

[31] = target: GlcA(b1-3)Gal(b1-4)GlcNAc(b1-3)Gal(b1-4)Glc
Procedure, shortened: as §1

[32] = target: GlcA(b1-3)Gal(b1-4)GlcNAc(b1-3)Gal(b1-4)GlcNAc(b1-3)Gal(b1-4)Glc
Procedure, shortened: as §1

[33] = target: GlcA(b1-3)GlcNAc(b1-4)GlcA(b1-3)GlcNAc
Procedure, shortened: as §1

[34] = target: GlcA(b1-3)GlcNAc(b1-4)GlcA(b1-3)GlcNAc(b1-4)GlcA(b1-3)GlcNAc(b1-4)GlcA(b1-3)GlcNAc(b1-4)GlcA(b1-3)GlcNAc(b1-4)GlcA(b1-3)GlcNAc(b1-4)GlcA(b1-3)GlcNAc
Procedure, shortened: as §1

[35] = target: GlcA3S(b1-3)Gal
Procedure, shortened: as §1

[36] = target: GlcA3S(b1-3)Gal(b1-4)GlcNAc(b1-3)Gal(b1-4)Glc
Procedure, shortened: as §1

[37] = target: GlcA3S(b1-3)Gal(b1-4)GlcNAc(b1-3)Gal(b1-4)GlcNAc(b1-3)Gal(b1-4)Glc
Procedure, shortened: as §1

[38] = target: GlcNAc(a1-4)Gal
Procedure, shortened: as §1

B1: Dectin-1 (Mus musculus), Q6QLQ4 (protein)
chain: GHNSGRNPEEKDNFLSRNKENHKPTESSLDEKVAPSKASQTTGGFSQPCLPNWIMHGKSCYLFSFSGNSWYGSKRHCSQLGAHLLKIDNSKEFEFIESQTSSHRINAFWIGLSRNQSEGPWFWEDGSAFFPNSFQVRNTAPQESLLHNCVWIHGSEVYNQICNTSSYSICEKEL
glycan array binding signal (z-score) [1]: -0.135 | glycan array binding signal (z-score) [2]: -0.135 | glycan array binding signal (z-score) [3]: -0.135 | glycan array binding signal (z-score) [4]: -0.011 | glycan array binding signal (z-score) [5]: -0.135 | glycan array binding signal (z-score) [6]: -0.135 | glycan array binding signal (z-score) [7]: -0.135 | glycan array binding signal (z-score) [8]: -0.068 | glycan array binding signal (z-score) [9]: -0.135 | glycan array binding signal (z-score) [10]: -0.135 | glycan array binding signal (z-score) [11]: -0.135 | glycan array binding signal (z-score) [12]: -0.135 | glycan array binding signal (z-score) [13]: -0.135 | glycan array binding signal (z-score) [14]: 0.216 | glycan array binding signal (z-score) [15]: -0.135 | glycan array binding signal (z-score) [16]: -0.135 | glycan array binding signal (z-score) [17]: -0.135 | glycan array binding signal (z-score) [18]: -0.135 | glycan array binding signal (z-score) [19]: -0.135 | glycan array binding signal (z-score) [20]: -0.135 | glycan array binding signal (z-score) [21]: -0.135 | glycan array binding signal (z-score) [22]: -0.089 | glycan array binding signal (z-score) [23]: -0.135 | glycan array binding signal (z-score) [24]: -0.135 | glycan array binding signal (z-score) [25]: -0.113 | glycan array binding signal (z-score) [26]: -0.104 | glycan array binding signal (z-score) [27]: -0.135 | glycan array binding signal (z-score) [28]: -0.078 | glycan array binding signal (z-score) [29]: -0.06 | glycan array binding signal (z-score) [30]: -0.091 | glycan array binding signal (z-score) [31]: -0.021 | glycan array binding signal (z-score) [32]: -0.049 | glycan array binding signal (z-score) [33]: -0.037 | glycan array binding signal (z-score) [34]: -0.012 | glycan array binding signal (z-score) [35]: -0.085 | glycan array binding signal (z-score) [36]: -0.078 | glycan array binding signal (z-score) [37]: -0.062 | glycan array binding signal (z-score) [38]: -0.088
